{"source": "patent US20260055155A1", "about": "“INCRETIN ANALOG AND USE THEREOF” (SHANGHAI MINWEI BIOTECHNOLOGY CO., LTD, priority 2023, published 2026)", "format_in_all_cases": "cell-based", "key": {"human GLP-1 receptor": {"molecular_target": "human GLP-1 receptor (Homo sapiens, UniProt P43220)", "sequence (P43220 24-463)": "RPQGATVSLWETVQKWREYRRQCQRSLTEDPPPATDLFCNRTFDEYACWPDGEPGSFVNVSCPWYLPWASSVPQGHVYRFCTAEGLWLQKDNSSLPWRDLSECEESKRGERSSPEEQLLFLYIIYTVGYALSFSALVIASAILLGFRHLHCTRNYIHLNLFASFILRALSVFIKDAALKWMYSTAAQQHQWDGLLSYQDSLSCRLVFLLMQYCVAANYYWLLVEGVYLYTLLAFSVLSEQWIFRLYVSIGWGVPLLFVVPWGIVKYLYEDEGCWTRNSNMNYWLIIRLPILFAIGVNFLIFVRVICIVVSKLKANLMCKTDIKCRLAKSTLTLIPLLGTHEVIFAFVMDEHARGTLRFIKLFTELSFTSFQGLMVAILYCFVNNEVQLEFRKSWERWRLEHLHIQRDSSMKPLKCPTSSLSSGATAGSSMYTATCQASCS", "test": "in vitro GLP-1 activity, CHO-K1 cells expressing human GLP-1 receptor and CRE-luciferase", "design": "expressed in transfected cells; host or cells: CHO-K1", "conditions": "PBS containing 0.25% FBS/0.01% BSA; 5 hours incubation; read-out: EC50 GLP-1R"}, "GCG receptor": {"molecular_target": "GCG receptor (Homo sapiens, UniProt P47871)", "sequence (P47871 26-477)": "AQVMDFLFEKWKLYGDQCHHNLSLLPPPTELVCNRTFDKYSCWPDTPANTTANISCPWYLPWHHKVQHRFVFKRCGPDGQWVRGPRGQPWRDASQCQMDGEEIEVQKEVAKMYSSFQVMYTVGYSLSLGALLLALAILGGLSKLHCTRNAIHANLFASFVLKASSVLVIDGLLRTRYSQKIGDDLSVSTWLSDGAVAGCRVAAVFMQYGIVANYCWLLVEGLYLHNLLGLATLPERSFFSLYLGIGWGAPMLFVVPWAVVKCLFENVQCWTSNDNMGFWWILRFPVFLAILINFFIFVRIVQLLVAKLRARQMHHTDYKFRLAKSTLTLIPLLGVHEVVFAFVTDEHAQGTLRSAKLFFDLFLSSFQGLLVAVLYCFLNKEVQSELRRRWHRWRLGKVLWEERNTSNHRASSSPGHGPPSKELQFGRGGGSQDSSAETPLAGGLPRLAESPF", "test": "in vitro GCG activity, CHO-K1 cells containing reporter gene and expressing GCG receptor", "design": "expressed in transfected cells; host or cells: CHO-K1", "conditions": "for EC50: operation similar to GLP-1R assay, read-out: EC50 GCGR; for GCG activity (in words): comment on Table 2"}, "GIP receptor": {"molecular_target": "T1, GIP receptor (Homo sapiens, UniProt P48546)", "T1 construct": "expressed in transfected cells; host or cells: CHO-K1", "T1 sequence (P48546 22-466)": "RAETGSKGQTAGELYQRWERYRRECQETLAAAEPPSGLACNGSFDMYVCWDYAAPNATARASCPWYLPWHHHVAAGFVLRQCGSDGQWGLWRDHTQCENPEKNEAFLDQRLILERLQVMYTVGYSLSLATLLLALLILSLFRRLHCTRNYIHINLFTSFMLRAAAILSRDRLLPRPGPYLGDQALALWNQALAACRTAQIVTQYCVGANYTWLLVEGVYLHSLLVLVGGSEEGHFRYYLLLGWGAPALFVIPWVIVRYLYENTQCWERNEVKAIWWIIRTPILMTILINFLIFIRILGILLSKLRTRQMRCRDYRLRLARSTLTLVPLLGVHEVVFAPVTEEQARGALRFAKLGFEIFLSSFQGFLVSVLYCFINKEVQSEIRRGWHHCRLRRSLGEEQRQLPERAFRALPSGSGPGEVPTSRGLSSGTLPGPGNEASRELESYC", "test": "in vitro GIP activity, CHO-K1 cells containing reporter gene and expressing GIP receptor", "conditions": "operation similar to GLP-1R assay; read-out: EC50 GIPR"}}, "note": "Not every detail of the peptide structures is certain; ends, links or a residue may be inferred. Some compounds share one wording; it may come from a single statement. Numbered stars: 1 amine (or outer) side, 2 acyl side, 3 side chain; on linkers, the order of the positions; unused ones are H or OH. Square brackets hold non-standard residues; d marks the D form. Side chains are listed from the residue outwards. Peptide text beside a SMILES is read from it. * marks the point of attachment. C20 diacid = O=C(O)CCCCCCCCCCCCCCCCCCC(=O)*; γGlu = O=C(O)[C@H](CCC(=O)[*:2])N[*:1]; AEEA = NCCOCCOCC(=O)O; Aib = CC(C)(N)C(=O)O", "data": [{"smiles": "CC[C@H](C)[C@H](NC(=O)[C@H](CC(C)C)NC(=O)[C@H](Cc1c[nH]c2ccccc12)NC(=O)[C@H](CCC(=O)O)NC(=O)[C@@H](NC(=O)[C@H](Cc1ccccc1)NC(=O)[C@H](C)NC(=O)[C@H](CCC(N)=O)NC(=O)[C@H](C)NC(=O)[C@H](C)NC(=O)[C@H](CCCCN)NC(=O)[C@H](CCCCNC(=O)COCCOCCNC(=O)CC[C@H](NC(=O)CCCCCCCCCCCCCCCCCCC(=O)O)C(=O)O)NC(=O)[C@H](CC(=O)O)NC(=O)[C@H](CC(C)C)NC(=O)[C@H](CC(C)C)NC(=O)[C@@H](NC(=O)[C@H](CO)NC(=O)[C@H](Cc1ccc(O)cc1)NC(=O)[C@H](CC(=O)O)NC(=O)[C@H](CO)NC(=O)[C@@H](NC(=O)[C@H](Cc1ccccc1)NC(=O)[C@@H](NC(=O)CNC(=O)[C@H](CCC(N)=O)NC(=O)C(C)(C)NC(=O)[C@@H](N)Cc1c[nH]cn1)[C@@H](C)O)[C@@H](C)O)[C@@H](C)CC)[C@@H](C)CC)C(=O)N[C@@H](C)C(=O)NCC(=O)NCC(=O)N1CCC[C@H]1C(=O)N[C@@H](CO)C(=O)N[C@@H](CO)C(=O)NCC(=O)N[C@@H](C)C(=O)N1CCC[C@H]1C(=O)N1CCC[C@H]1C(=O)N1CCC[C@H]1C(=O)N[C@@H](CO)C(N)=O", "note": "[Polypeptide 2] (H-H[Aib]QGTFTSDYSILLDK([AEEA-γGlu-C20 diacid])KAAQAFIEWLIAGGPSSGAPPPS-NH2; N-terminus and C-terminus assumed)", "values": [{"measurement": "EC50", "setting": "human GLP-1 receptor", "result": 19.6, "unit": "nM"}, {"measurement": "EC50", "setting": "GCG receptor", "result": 0.588, "unit": "nM"}, {"measurement": "EC50", "setting": "GIP receptor", "result": 1.22, "unit": "nM"}]}, {"smiles": "CC[C@H](C)[C@H](NC(=O)[C@H](CC(C)C)NC(=O)[C@H](Cc1c[nH]c2ccccc12)NC(=O)[C@H](CCC(=O)O)NC(=O)[C@@H](NC(=O)[C@H](Cc1ccccc1)NC(=O)[C@H](C)NC(=O)[C@H](CCC(N)=O)NC(=O)[C@H](C)NC(=O)[C@H](C)NC(=O)[C@H](CCCCNC(=O)COCCOCCNC(=O)CC[C@H](NC(=O)CCCCCCCCCCCCCCCCCCC(=O)O)C(=O)O)NC(=O)[C@H](CCCCN)NC(=O)[C@H](CC(=O)O)NC(=O)[C@H](CC(C)C)NC(=O)[C@H](CC(C)C)NC(=O)[C@@H](NC(=O)[C@H](CO)NC(=O)[C@H](Cc1ccc(O)cc1)NC(=O)[C@H](CC(=O)O)NC(=O)[C@H](CO)NC(=O)[C@@H](NC(=O)[C@H](Cc1ccccc1)NC(=O)[C@@H](NC(=O)CNC(=O)[C@H](CCC(N)=O)NC(=O)C(C)(C)NC(=O)[C@@H](N)Cc1c[nH]cn1)[C@@H](C)O)[C@@H](C)O)[C@@H](C)CC)[C@@H](C)CC)C(=O)N[C@@H](C)C(=O)NCC(=O)NCC(=O)N1CCC[C@H]1C(=O)N[C@@H](CO)C(=O)N[C@@H](CO)C(=O)NCC(=O)N[C@@H](C)C(=O)N1CCC[C@H]1C(=O)N1CCC[C@H]1C(=O)N1CCC[C@H]1C(=O)N[C@@H](CO)C(N)=O", "note": "[Polypeptide 3] (H-H[Aib]QGTFTSDYSILLDKK([AEEA-γGlu-C20 diacid])AAQAFIEWLIAGGPSSGAPPPS-NH2; N-terminus and C-terminus assumed)", "values": [{"measurement": "EC50", "setting": "human GLP-1 receptor", "result": 20.6, "unit": "nM"}, {"measurement": "GCG activity (in words)", "setting": "GCG receptor", "result": "significantly increased"}, {"measurement": "EC50", "setting": "GCG receptor", "result": 0.499, "unit": "nM"}, {"measurement": "EC50", "setting": "GIP receptor", "result": 1.63, "unit": "nM"}]}, {"smiles": "CC[C@H](C)[C@H](NC(=O)[C@H](CC(C)C)NC(=O)[C@H](Cc1c[nH]c2ccccc12)NC(=O)[C@H](CCC(=O)O)NC(=O)[C@@H](NC(=O)[C@H](Cc1ccccc1)NC(=O)[C@H](C)NC(=O)[C@H](CCC(N)=O)NC(=O)[C@H](C)NC(=O)[C@H](C)NC(=O)[C@H](CCC(N)=O)NC(=O)[C@H](CCCCNC(=O)COCCOCCNC(=O)CC[C@H](NC(=O)CCCCCCCCCCCCCCCCCCC(=O)O)C(=O)O)NC(=O)[C@H](CC(=O)O)NC(=O)[C@H](CC(C)C)NC(=O)[C@H](CC(C)C)NC(=O)[C@@H](NC(=O)[C@H](CO)NC(=O)[C@H](Cc1ccc(O)cc1)NC(=O)[C@H](CC(=O)O)NC(=O)[C@H](CO)NC(=O)[C@@H](NC(=O)[C@H](Cc1ccccc1)NC(=O)[C@@H](NC(=O)CNC(=O)[C@H](CCC(N)=O)NC(=O)C(C)(C)NC(=O)[C@@H](N)Cc1c[nH]cn1)[C@@H](C)O)[C@@H](C)O)[C@@H](C)CC)[C@@H](C)CC)C(=O)N[C@@H](C)C(=O)NCC(=O)NCC(=O)N1CCC[C@H]1C(=O)N[C@@H](CO)C(=O)N[C@@H](CO)C(=O)NCC(=O)N[C@@H](C)C(=O)N1CCC[C@H]1C(=O)N1CCC[C@H]1C(=O)N1CCC[C@H]1C(=O)N[C@@H](CO)C(N)=O", "note": "[Polypeptide 4] (H-H[Aib]QGTFTSDYSILLDK([AEEA-γGlu-C20 diacid])QAAQAFIEWLIAGGPSSGAPPPS-NH2; N-terminus and C-terminus assumed)", "values": [{"measurement": "EC50", "setting": "human GLP-1 receptor", "result": 17.2, "unit": "nM"}, {"measurement": "EC50", "setting": "GCG receptor", "result": 0.965, "unit": "nM"}, {"measurement": "EC50", "setting": "GIP receptor", "result": 6.66, "unit": "nM"}]}, {"smiles": "CC[C@H](C)[C@H](NC(=O)[C@H](CCCCNC(=O)COCCOCCNC(=O)CC[C@H](NC(=O)CCCCCCCCCCCCCCCCCCC(=O)O)C(=O)O)NC(=O)[C@H](CC(=O)O)NC(=O)[C@H](CC(C)C)NC(=O)[C@H](CC(C)C)NC(=O)[C@@H](NC(=O)[C@H](CO)NC(=O)[C@H](Cc1ccc(O)cc1)NC(=O)[C@H](CC(=O)O)NC(=O)[C@H](CO)NC(=O)[C@@H](NC(=O)[C@H](Cc1ccccc1)NC(=O)[C@@H](NC(=O)CNC(=O)[C@H](CCC(N)=O)NC(=O)C(C)(C)NC(=O)[C@@H](N)Cc1ccc(O)cc1)[C@@H](C)O)[C@@H](C)O)[C@@H](C)CC)C(=O)N[C@@H](C)C(=O)N[C@@H](C)C(=O)N[C@@H](CCC(N)=O)C(=O)N[C@@H](C)C(=O)N[C@@H](Cc1ccccc1)C(=O)N[C@H](C(=O)N[C@@H](CCC(=O)O)C(=O)N[C@@H](Cc1c[nH]c2ccccc12)C(=O)N[C@@H](CC(C)C)C(=O)N[C@H](C(=O)N[C@@H](C)C(=O)NCC(=O)NCC(=O)N1CCC[C@H]1C(=O)N[C@@H](CO)C(=O)N[C@@H](CO)C(=O)NCC(=O)N[C@@H](C)C(=O)N1CCC[C@H]1C(=O)N1CCC[C@H]1C(=O)N1CCC[C@H]1C(=O)N[C@@H](CO)C(N)=O)[C@@H](C)CC)[C@@H](C)CC", "note": "[Polypeptide 5] (H-Y[Aib]QGTFTSDYSILLDK([AEEA-γGlu-C20 diacid])IAAQAFIEWLIAGGPSSGAPPPS-NH2; N-terminus and C-terminus assumed)", "values": [{"measurement": "EC50", "setting": "human GLP-1 receptor", "result": 96.3, "unit": "nM"}, {"measurement": "EC50", "setting": "GCG receptor", "result": 1.6, "unit": "nM"}, {"measurement": "EC50", "setting": "GIP receptor", "result": 0.072, "unit": "nM"}]}, {"smiles": "CC[C@H](C)[C@H](NC(=O)[C@H](CCCCNC(=O)COCCOCCNC(=O)CC[C@H](NC(=O)CCCCCCCCCCCCCCCCCCC(=O)O)C(=O)O)NC(=O)[C@H](CC(=O)O)NC(=O)[C@H](CC(C)C)NC(=O)[C@H](CC(C)C)NC(=O)[C@@H](NC(=O)[C@H](CO)NC(=O)[C@H](Cc1ccc(O)cc1)NC(=O)[C@H](CC(=O)O)NC(=O)[C@H](CO)NC(=O)[C@@H](NC(=O)[C@H](Cc1ccccc1)NC(=O)[C@@H](NC(=O)CNC(=O)[C@H](CCC(N)=O)NC(=O)C(C)(C)NC(=O)[C@@H](N)Cc1c[nH]cn1)[C@@H](C)O)[C@@H](C)O)[C@@H](C)CC)C(=O)N[C@@H](C)C(=O)N[C@@H](C)C(=O)N[C@@H](CCC(N)=O)C(=O)N[C@@H](C)C(=O)N[C@@H](Cc1ccccc1)C(=O)N[C@H](C(=O)N[C@@H](CCC(=O)O)C(=O)N[C@@H](Cc1ccc(O)cc1)C(=O)N[C@@H](CC(C)C)C(=O)N[C@@H](CC(C)C)C(=O)N[C@@H](CCC(=O)O)C(=O)NCC(=O)NCC(=O)N1CCC[C@H]1C(=O)N[C@@H](CO)C(=O)N[C@@H](CO)C(=O)NCC(=O)N[C@@H](C)C(=O)N1CCC[C@H]1C(=O)N1CCC[C@H]1C(=O)N1CCC[C@H]1C(=O)N[C@@H](CO)C(N)=O)[C@@H](C)CC", "note": "[Polypeptide 6] (H-H[Aib]QGTFTSDYSILLDK([AEEA-γGlu-C20 diacid])IAAQAFIEYLLEGGPSSGAPPPS-NH2; N-terminus and C-terminus assumed)", "values": [{"measurement": "EC50", "setting": "human GLP-1 receptor", "result": 25.6, "unit": "nM"}, {"measurement": "GCG activity (in words)", "setting": "GCG receptor", "result": "significantly increased"}, {"measurement": "EC50", "setting": "GCG receptor", "result": 0.309, "unit": "nM"}, {"measurement": "EC50", "setting": "GIP receptor", "result": 0.956, "unit": "nM"}]}]}
